Data from PubChem BioAssay (NCATS).
The inconclusive results got no clear call from the source; some entries with a clear call stand among them for comparison. For some of these results: Potencies beside an inconclusive call are fits to weak or partial responses and may not hold up. Activity calls are given as the source filed them. Unless noted, calls follow the shape of the dose curve; as a rule, active = well fitted curve in the direction sought with a large enough effect; inconclusive = small, poorly fitted or top-dose-only effect, or another doubt; inactive = no such curve, though single readings can be large; an effect the other way counts as inactive or inconclusive.

What was measured:
[1] = UWB1.289 Cancer Cell Toxicity qHTS against the NCATS CANVASS Library (AID 1347347)
How it was run: (§1)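 Quantitative HTS format: an 11-concentration series was applied to 1000 cells/well following a 4-hour attachment. Cultures ran 72 hours before ATP luminescence detection by CellTiter-Glo.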

[2] = OV-SAHO Cancer Cell Toxicity qHTS against the NCATS CANVASS Library (AID 1347348); details: OV-SAHO viability, CellTiter-Glo luminescence, 72 h; activity change, negative = cytotoxicity: at 38.3 µM (top of the series)
How it was run: as §1

[3] = biological target: Nuclear receptor subfamily 1 group I member 3 (Homo sapiens) (UniProt Q14994); experiment: qHTS for Constitutive Androstane Receptor (CAR) Antagonist screened against the NCATS CANVASS Library (AID 1347372)
Chain of UniProt Q14994 (Q14994 whole entry, looked up): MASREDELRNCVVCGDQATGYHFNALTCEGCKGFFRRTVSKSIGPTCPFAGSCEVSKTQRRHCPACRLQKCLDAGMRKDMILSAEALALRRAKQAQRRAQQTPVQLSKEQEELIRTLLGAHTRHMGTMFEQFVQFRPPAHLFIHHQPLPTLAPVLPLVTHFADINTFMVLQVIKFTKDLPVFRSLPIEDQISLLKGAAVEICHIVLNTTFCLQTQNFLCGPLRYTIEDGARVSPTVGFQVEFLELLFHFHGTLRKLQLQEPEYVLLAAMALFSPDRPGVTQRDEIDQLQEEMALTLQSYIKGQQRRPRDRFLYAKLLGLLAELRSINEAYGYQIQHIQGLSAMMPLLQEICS
How it was run: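 Luminescence readout (ONE-Glo, 30 min RT) of CYP2B6-2.2kb reporter in HepG2-hCAR cells after 24hr, 37C treatment with compound against 50 nM CITCO; CellTiter-Fluor viability read beforehand.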

[4] = qHTS for Inflammasome Signaling Inhibitors: IL-1-beta AlphaLISA screen against the NCATS CANVASS Library (AID 1347379)
How it was run: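 THP-1, 1 hr compound pre-incubation, then LPS 250 ng/mL + ATP 1.25 mM (final); 16 hr total with compound; IL-1B AlphaLISA, ex 680/em 615 nm; 11-point qHTS, up to 57.5 uM final.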

[5] = qHTS for inhibitors of ER calcium dysfunction: SERCaMP assay screened against the NCATS CANVASS Library (AID 1347393); details: SH-SY5Y GLuc-SERCaMP secretion, thapsigargin, luminescence; activity change, negative = inhibition: at 76.6 µM (top of the series)
How it was run: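 SH-SY5Y GLuc-SERCaMP, 1000 cells/well, 4 h attach; cpd 16 h, 37C/5% CO2; thapsigargin (added as 6x 600 nM) 4 h; coelenterazine; luminescence. Reduced reporter release = ER Ca stabilization.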

[6] = Vero-766 cells viability qHTS against the NCATS CANVASS Library: Counterscreen for Zika virus inhibition assay (AID 1347394)
How it was run: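 CellTiter Glo luminescence measured cytotoxicity after 72 h at 37C in uninfected Vero 766 cells, plated at 1000 cells/well. Compounds were applied in an 11-point series. Wells without cells defined 100% inhibition.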

[7] = qHTS for inhibitors of Wild type Zika virus screened against the NCATS CANVASS Library (AID 1347396)
How it was run: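 Vero 766 cells, 1000/well, o/n attach; cpds pin-transferred (11-pt qHTS); WT Zika added; 72 h, 37C, 5% CO2; CellTiter Glo lumi. Uninfected + vehicle = 100% inhibition.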

[8] = Panc-1005 Cancer Cell Toxicity qHTS against the NCATS CANVASS Library (AID 1347349)
How it was run: as §1

[9] = COV-362 Cancer Cell Toxicity qHTS against the NCATS CANVASS Library (AID 1347352)
How it was run: (§2)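 Using an ATP-based luminescent reagent after three days of treatment, toxicity is scored across an eleven-concentration range in wells holding 1000 cells each.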

[10] = A2780 Cisplatin Sensitive Ovarian Cancer Cell Toxicity qHTS against the NCATS CANVASS Library (AID 1347353)
How it was run: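 Quantitative HTS format: eleven compound concentrations applied to pre-seeded cells, 72 h incubation at 37 °C, then ATP detection by luminescence.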

[11] = HEK-293 Cancer Cell Toxicity qHTS against the NCATS CANVASS Library (AID 1347355)
How it was run: as §2

[12] = G06 Cancer Cell Toxicity qHTS against the NCATS CANVASS Library (AID 1347368)
How it was run: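 Quantitative HTS in G06 cells (dog glioma): 72 hr treatment, 11 concentrations, then ATP-based luminescent viability readout; bortezomib 0.1 nM–4.6 uM final as reference.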

[13] = Confirmation and Secondary Assay for Modulators of Hemoglobin Beta Chain Splicing at IVS2 705 locus (AID 930); details: HeLa EGFP-705 splicing reporter, GFP fluorescence, 48 h
How it was run: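 First, HeLa EGFP-705 cells are seeded at 500/well in Optimem with 2% FCS and left overnight. Next, compound or DMSO is added for 2 days. Finally wells are laser-scanned and total peak GFP intensity scored.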

[14] = qHTS screen for small molecules that inhibit ELG1-dependent DNA repair: Hit Confirmation in Cell-Based Luciferin Assay (AID 624247); details: cell-free firefly luciferase luminescence counter-screen, ViewLux
How it was run: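 Order of addition is substrate reagent → compound (or DMSO) → luciferase, with luminescence as readout.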

[15] = biological target: ATPase family AAA domain-containing protein 5 (Homo sapiens) (UniProt Q96QE3); experiment: HTS assay for small molecules that inhibit ELG1-dependent DNA repair in human embryonic kidney (HEK293T) cells expressing luciferase-tagged ELG1: Hit Confirmation (AID 624248)
How it was run: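 HEK293T cells expressing luciferase-tagged ELG1 treated with 5-fluorouridine plus compound for 16 h at 37 C; luciferase activity then measured with ONE-Glo after 30 min at room temperature.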

[16] = qHTS screen for small molecules that inhibit ELG1-dependent DNA repair: Hit Confirmation with 5FU Viability (AID 624250)
How it was run: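 Compounds are tested on ELG1-luc HEK293T cells in the presence of 5-fluorouridine (final 10 µM). Viability is measured with CellTiter-Glo 16 h after compound addition.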

[17] = HepG2 cells viability qHTS for Zika virus inhibitors (AID 1347168)
How it was run: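 qHTS titration; 24-48 h compound exposure, 37 degrees C/5% CO2; DMEM, 4% FBS; CellTiter Glo ATP luminescence.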

[18] = Validation of Assay for Modulators of Lamin A Splicing (AID 1459; active = well fitted curve in the direction sought with a large enough effect in the signal ratio; inconclusive = small, poorly fitted or top-dose-only effect, or effect the other way, or a change in a side signal; inactive = no such curve, though single readings can be large or run the other way; the % refers to the signal ratio); details: Lamin A splicing dual RFP/GFP fluorescence reporter; Potency: ratio unless noted; ratio change, both ways: at 9.22 µM unless noted
How it was run: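 Splicing correction read as GFP (500-530 nm) over DsRed2 (575-640 nm) object intensity after 48 h compound exposure of reporter HeLa S3 clones (600 cells/well, 2% FBS medium); ancitabine and cycloheximide titrations, 0.5% DMSO as vehicle.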

[19] = qHTS for differential inhibitors of proliferation of Plasmodium falciparum line GB4 (AID 1816); details: Potency: Plasmodium falciparum GB4 proliferation inhibition
[20] = qHTS for differential inhibitors of proliferation of Plasmodium falciparum line 3D7 (AID 1876)
[21] = qHTS for differential inhibitors of proliferation of Plasmodium falciparum line D10 (AID 1877)
[22] = qHTS for differential inhibitors of proliferation of Plasmodium falciparum line W2 (AID 1883); details: Potency: Plasmodium falciparum W2 proliferation inhibition
[23] = qHTS for differential inhibitors of proliferation of Plasmodium falciparum line HB3 (AID 1886); details: Potency: Plasmodium falciparum HB3 proliferation inhibition
[24] = biological target: RecQ-like DNA helicase BLM (Homo sapiens) (UniProt P54132); experiment: qHTS Validation Assay for Inhibitors of Bloom's syndrome helicase (BLM) (AID 2364)
Chain of UniProt P54132 (P54132 whole entry, looked up): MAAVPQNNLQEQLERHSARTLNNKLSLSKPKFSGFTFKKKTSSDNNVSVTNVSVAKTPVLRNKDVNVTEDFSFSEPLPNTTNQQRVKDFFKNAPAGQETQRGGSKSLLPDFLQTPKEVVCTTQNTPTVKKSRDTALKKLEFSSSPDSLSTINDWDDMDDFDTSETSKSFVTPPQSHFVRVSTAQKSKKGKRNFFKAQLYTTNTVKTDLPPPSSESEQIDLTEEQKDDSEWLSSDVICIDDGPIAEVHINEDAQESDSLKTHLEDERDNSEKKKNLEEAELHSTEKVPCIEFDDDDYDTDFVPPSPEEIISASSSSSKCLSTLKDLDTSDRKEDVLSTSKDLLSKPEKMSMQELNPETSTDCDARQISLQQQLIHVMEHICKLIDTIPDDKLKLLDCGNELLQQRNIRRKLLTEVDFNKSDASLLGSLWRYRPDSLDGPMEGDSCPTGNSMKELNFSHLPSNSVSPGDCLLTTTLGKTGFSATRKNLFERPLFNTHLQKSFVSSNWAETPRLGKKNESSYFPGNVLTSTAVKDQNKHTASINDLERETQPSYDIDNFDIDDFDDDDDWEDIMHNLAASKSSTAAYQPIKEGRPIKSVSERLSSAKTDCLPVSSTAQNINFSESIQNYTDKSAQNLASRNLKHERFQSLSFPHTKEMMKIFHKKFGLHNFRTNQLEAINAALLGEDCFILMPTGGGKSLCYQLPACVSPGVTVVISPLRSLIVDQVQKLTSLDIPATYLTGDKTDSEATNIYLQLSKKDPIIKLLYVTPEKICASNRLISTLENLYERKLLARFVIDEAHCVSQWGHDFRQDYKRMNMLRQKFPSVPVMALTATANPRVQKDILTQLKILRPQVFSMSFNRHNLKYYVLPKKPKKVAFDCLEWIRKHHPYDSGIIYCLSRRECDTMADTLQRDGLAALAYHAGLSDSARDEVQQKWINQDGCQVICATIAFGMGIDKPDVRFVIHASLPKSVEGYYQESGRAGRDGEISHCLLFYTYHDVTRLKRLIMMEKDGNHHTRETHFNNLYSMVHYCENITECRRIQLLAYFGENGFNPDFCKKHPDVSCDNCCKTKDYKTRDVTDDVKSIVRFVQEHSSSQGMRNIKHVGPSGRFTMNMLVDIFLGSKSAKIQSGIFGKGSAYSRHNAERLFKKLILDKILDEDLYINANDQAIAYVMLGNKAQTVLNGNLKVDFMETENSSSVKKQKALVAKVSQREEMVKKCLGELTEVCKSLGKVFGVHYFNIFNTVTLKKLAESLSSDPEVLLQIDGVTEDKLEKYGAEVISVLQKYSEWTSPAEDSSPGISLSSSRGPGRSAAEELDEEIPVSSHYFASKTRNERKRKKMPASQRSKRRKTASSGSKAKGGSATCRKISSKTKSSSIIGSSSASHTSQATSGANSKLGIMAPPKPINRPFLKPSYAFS
How it was run: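 50 nM BLM preincubated 15 min at room temperature with compound in pH 8.0 Tris buffer containing 2.5 ug/ml poly(dI-dC); started with 200 nM TAMRA/BHQ-2 forked duplex and 2 mM ATP (final). Unwinding read as TAMRA fluorescence increase, two reads 2 h apart.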

[25] = Validation screen for small molecules that induce DNA re-replication in MCF 10A normal breast cells (AID 463097)
How it was run: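 Read-out is Hoechst total nuclear intensity by fluorescence scanning imager, flagging increased high-DNA-content nuclei. Compounds were incubated with MCF 10A cells for 48 hr (37 C, 5% CO2) before 40 min staining.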

[26] = qHTS Validation Assay to Find Inhibitors of Chronic Active B-Cell Receptor Signaling (AID 485345; active = well fitted curve in the direction sought with a large enough effect in the main read-out, with a control signal flat, not every such curve was filed as active; inconclusive = small, poorly fitted or top-dose-only effect, or effect the other way, or a change in a side signal; inactive = no such curve, though single readings can be large or run the other way); details: ABC-DLBCL cells, chronic BCR signaling reporter; activity change: CBG luciferase, at 46.1 µM (top of the series)
How it was run: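 TMD8 ABC-DLBCL cells stably carrying doxycycline-inducible IkappaBalpha–green luciferase fusion plus unfused red luciferase; compounds 46 uM to 3 nM, 4 h at 37C with doxycycline. Corrected green/red luminescence ratio normalized to 10 uM MG-132 and basal cell wells; curves fitted.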

[27] = biological target: Chromobox protein homolog 1 (Homo sapiens) (UniProt P83916); experiment: qHTS Validation Assay for Inhibitors of HP1-beta Chromodomain Interactions with Methylated Histone Tails (AID 488953)
Chain of UniProt P83916 (P83916 whole entry, looked up): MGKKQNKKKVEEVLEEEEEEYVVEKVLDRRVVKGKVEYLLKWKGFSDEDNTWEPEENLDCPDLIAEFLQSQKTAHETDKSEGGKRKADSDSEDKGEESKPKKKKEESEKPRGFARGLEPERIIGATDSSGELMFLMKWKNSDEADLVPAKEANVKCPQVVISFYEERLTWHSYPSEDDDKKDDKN
How it was run: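 Compounds pinned into a preassembled complex of HP1-beta and trimethyl-K9 histone H3(1-18) biotin peptide (50 nM each; PBS pH 7.4, 0.01% Tween-20). After 30 min, bead-based AlphaScreen detection followed.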

[28] = biological target: Peptidyl-prolyl cis-trans isomerase NIMA-interacting 1 (Homo sapiens) (UniProt Q13526); experiment: qHTS Validation Assay to Find Inhibitors of Pin1 (AID 504536; active = well fitted inhibition curve with a large enough effect in the polarisation, with a control signal flat, not every such curve was filed as active; inconclusive = small, poorly fitted or top-dose-only effect, or effect the other way; the % refers to the polarisation)
Chain of UniProt Q13526 (Q13526 whole entry, looked up): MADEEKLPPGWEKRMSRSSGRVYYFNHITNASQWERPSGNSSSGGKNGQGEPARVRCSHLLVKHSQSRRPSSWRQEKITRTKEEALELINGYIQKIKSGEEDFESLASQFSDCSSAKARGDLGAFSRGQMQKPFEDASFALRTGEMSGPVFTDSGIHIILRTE
How it was run: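 Fluorescence polarization competition: compounds (titration) displace HiFluor-488-labeled Pin1-1b peptide from Pin1 (0.3 uM final) in pH 7.5 HEPES buffer with DTT, 10 min at room temperature; %Activity normalized to no-enzyme wells, curves fitted.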

[29] = HTS Assay for Allosteric Antagonists of the Human D2 Dopamine Receptor: Hit Validation in HTRF (AID 624455)
How it was run: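 Validation of hits used D1 receptor stably expressed in cells with HTRF detection of response inhibition; origin screen measured calcium flux following EC80 dopamine in a force-coupled, inducible Hek293 Trex D2 cell line.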

[30] = qHTS Assay for Identifying Gametocytocidal Compounds (AID 743244); details: P. falciparum 3D7 stage III-V gametocytes, alamarBlue, 72 h; max response: active compounds read low
How it was run: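 3D7 gametocytes, stages III–V, 20,000/well; cpd 72 h, 37 °C/5% CO2; + alamarBlue 24 h; fluor. Ex 525/Em 598.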

[31] = biological target: Lysine-specific demethylase 5B (Homo sapiens) (UniProt Q9UGL1); experiment: Optimization screen for KDM5B Histone Demethylases FDH coupled qHTS against the LOPAC library (AID 1347166); details: KDM5B demethylation, FDH-coupled NADH fluorescence (FDH is formaldehyde dehydrogenase); activity, negative = inhibition: at 57.5 µM (top of the series) unless noted
Chain of UniProt Q9UGL1 (Q9UGL1 whole entry, looked up): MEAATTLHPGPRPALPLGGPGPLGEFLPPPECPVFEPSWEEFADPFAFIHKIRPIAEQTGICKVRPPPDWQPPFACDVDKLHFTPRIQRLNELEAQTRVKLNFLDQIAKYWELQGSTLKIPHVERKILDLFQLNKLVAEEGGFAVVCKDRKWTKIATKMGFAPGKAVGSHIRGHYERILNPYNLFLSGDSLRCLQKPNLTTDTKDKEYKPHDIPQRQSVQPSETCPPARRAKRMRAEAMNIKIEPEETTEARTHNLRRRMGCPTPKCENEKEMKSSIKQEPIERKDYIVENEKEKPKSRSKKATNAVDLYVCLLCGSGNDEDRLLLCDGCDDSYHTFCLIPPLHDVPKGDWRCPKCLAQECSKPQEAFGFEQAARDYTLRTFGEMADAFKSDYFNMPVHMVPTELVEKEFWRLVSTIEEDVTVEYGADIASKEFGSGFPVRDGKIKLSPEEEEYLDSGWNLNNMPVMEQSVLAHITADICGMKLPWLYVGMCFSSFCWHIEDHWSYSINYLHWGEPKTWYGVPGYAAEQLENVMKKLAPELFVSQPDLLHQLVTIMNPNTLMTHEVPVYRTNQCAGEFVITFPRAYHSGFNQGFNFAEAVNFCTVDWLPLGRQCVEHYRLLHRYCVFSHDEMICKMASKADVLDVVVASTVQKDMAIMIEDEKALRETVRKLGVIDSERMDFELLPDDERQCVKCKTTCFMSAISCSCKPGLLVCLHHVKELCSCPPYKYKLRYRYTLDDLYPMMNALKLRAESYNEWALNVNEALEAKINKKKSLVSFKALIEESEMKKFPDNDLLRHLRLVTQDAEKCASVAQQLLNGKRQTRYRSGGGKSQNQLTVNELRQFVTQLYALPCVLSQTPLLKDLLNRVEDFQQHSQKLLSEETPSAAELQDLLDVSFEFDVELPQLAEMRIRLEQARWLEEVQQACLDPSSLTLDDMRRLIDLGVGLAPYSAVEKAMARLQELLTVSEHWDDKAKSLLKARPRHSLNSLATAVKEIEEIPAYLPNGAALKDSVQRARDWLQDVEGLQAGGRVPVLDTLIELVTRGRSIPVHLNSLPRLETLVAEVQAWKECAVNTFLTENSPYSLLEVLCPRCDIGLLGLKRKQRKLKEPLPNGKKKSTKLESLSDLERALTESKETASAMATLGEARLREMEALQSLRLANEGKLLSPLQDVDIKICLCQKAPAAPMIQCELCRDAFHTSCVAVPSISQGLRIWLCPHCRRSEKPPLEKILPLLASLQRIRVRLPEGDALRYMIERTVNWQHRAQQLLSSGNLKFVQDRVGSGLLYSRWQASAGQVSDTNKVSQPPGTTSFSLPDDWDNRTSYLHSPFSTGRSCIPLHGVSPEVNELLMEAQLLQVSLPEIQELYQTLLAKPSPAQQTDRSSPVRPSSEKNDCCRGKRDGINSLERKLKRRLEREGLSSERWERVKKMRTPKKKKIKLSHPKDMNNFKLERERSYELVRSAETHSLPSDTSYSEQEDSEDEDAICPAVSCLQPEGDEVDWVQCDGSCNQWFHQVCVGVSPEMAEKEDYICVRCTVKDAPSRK
How it was run: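 KDM5BDeltaAP (200nM final) in 50mM HEPES pH 7.5, 0.01% Tween-20 was preincubated with compound for 10 min at room temperature. A substrate mix of 12.5uM H3K4Me3, 25uM a-ketoglutarate, ascorbate, Fe2+, NAD+ and formaldehyde dehydrogenase was then added. NADH fluorescence (340/450 nm) was read initially and after 30 min.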

[32] = biological target: Glutathione peroxidase 1 (Homo sapiens) (UniProt P07203); experiment: Primary qHTS Assay for Inhibitors of Recombinant Selenoprotein Glutathione Peroxidase 1 (GPX1) (AID 1845191); details: activity, negative = inhibition: at 48.8 µM (top of the series)
Chain of UniProt P07203 (P07203 whole entry, looked up): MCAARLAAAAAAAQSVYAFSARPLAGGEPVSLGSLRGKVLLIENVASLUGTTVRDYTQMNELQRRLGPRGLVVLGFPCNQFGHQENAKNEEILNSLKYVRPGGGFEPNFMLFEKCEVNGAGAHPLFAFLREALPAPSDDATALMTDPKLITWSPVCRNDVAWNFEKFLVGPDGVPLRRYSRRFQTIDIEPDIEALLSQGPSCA
How it was run: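 GR-coupled readout: NADPH consumption tracked by fluorescence, ex 340/em 450 nm, at t=0 and after 15 min at RT. Final mix 10 nM GPX1, 1 mM GSH, 0.5 mM CHP, 0.5 mM NADPH, 100 nM GR, 0.01% BSA, following 30 min enzyme–compound preincubation.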

CC[C@@H]1CN2CCC3(Nc4cccc(OC)c4C3=O)[C@@H]2C[C@@H]1/C(=C\OC)C(=O)OC (some centres undefined)
active: Potency [5] 12.2 µM
inactive: Potency [4] | Potency [6] | Potency [7]
inconclusive: Potency [1] 14.9 µM [cytotoxic, partial curve] | Potency [2] 26.5 µM [cytotoxic, partial curve, poor fit] | Potency [3] 20.9 µM [inhibitor, partial curve]

CO[C@H](c1ccccc1)[C@H]1NC(=O)C(C)NC(=O)C(C[C@@H](C)CO)N(C)C(=O)[C@@H](C(O)c2cn(C(C)(C)C3CO3)c3ccccc23)NC(=O)C(C(C)C=C(C)C)NC(=O)C(CC(C)C)N(C)C(=O)C(C(C)C)NC1=O (some centres undefined)
inactive: Potency [8] | Potency [9] | Potency [10]
inconclusive: Potency [11] 18.2 µM [cytotoxic, single point] | Potency [12] 575 nM [cytotoxic, full curve] | Potency [4] 21.1 µM [inhibitor, partial curve, poor fit] | Potency [5] 11.9 µM [inhibitor, partial curve]

COC1C(O)C(C)O[C@@H](OC2CC[C@@]3(C)C4CC[C@]5(C)C(C6=CC(=O)OC6)CC[C@@]5(O)C4CC[C@@H]3C2)C1O (some centres undefined)
active: Potency [15] 99.7 nM
inconclusive: Potency [13] 10 µM [activator, partial curve, poor fit] | Potency [14] 141 nM [inhibitor, full curve] | Potency [16] 126 nM [cytotoxic, full curve] | Potency [17] 208 nM [cytotoxic, full curve, poor fit]

CC(=O)[C@H]1CCC2C3CC[C@H]4C[C@H](O)CC[C@]4(C)C3CC[C@@]21C (some centres undefined)
inactive: Potency [26] | Potency [27] | max response [30] 27.5% | Potency [31] | Potency [32]
active: Potency [22] 10 µM
inconclusive: Potency [18] 12.6 µM [activator, partial curve] | Potency [19] 10 µM [inhibitor, partial curve] | Potency [20] 8.91 µM [inhibitor, partial curve] | Potency [21] 11.2 µM [inhibitor, partial curve] | Potency [23] 501 nM [inhibitor, full curve, poor fit] | Potency [24] 44.7 µM [inhibitor, partial curve] | Potency [25] 10 µM [activator, partial curve] | Potency [28] 37.9 µM [falling, single point] | Potency [29] 23.1 µM [inhibitor, single point]
